The other results are listed elsewhere or left out. Viral Rep nickase domains cut single-stranded DNA in vitro at 3 µM enzyme and 37 °C for 1 h; the strands have 90 letters, of which the middle is given. A value is the log2 ratio of uncut reads to the pool without enzyme; the lower, the more was cut; hits are not called. The scaling is to total reads; where an enzyme cuts many sequences, the uncut ones exceed 0.
Experiments:
Test in all cases: uncleaved DNA left, log2 of reads against the no-enzyme library (log2 ratio); higher = less cleavage (more negative = more Rep cleavage of the k-mer); sequences stand for … in CTCGTCCG…ACCGGAGA
[1] = test system: T1, Rep nickase domain of Muscovy duck circovirus
T1 sequence (Rep 1-111, printed without the tag): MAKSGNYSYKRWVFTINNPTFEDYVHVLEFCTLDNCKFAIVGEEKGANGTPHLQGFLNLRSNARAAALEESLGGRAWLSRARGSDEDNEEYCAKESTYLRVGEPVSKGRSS
Procedure: (§1)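 A pool of 90-nt single-stranded DNAs with seven random bases just before the constant AC of the nick site (name = the seven bases) was cut by 3 µM recombinant His6-SUMO-tagged Rep nickase domain (300 nM DNA, 50 mM HEPES pH 8.0, 50 mM NaCl, 1 mM MnCl2, 1 h, 37 °C, three replicates). Uncut DNA was amplified and sequenced.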

[2] = test system: T2, Rep nickase domain of banana bunchy top virus
T2 sequence (Rep 1-94, printed without the tag): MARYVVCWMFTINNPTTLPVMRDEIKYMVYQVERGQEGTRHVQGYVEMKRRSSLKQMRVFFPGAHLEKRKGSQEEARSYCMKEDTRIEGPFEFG
Procedure: as §1

[3] = test system: T3, Rep nickase domain of cabbage leaf curl virus
T3 sequence (Rep 1-116, printed without the tag): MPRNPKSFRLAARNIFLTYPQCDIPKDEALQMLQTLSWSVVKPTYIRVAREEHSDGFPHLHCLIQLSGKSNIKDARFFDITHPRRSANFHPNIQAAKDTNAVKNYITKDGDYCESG
Procedure: as §1

[4] = test system: T4, Rep nickase domain of chickpea chlorotic dwarf virus
T4 sequence (Rep 1-124, printed without the tag): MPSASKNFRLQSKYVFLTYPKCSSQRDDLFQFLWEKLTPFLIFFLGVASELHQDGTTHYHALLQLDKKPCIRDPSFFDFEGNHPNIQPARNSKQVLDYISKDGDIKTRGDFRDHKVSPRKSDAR
Procedure: as §1

[5] = test system: T5, Rep nickase domain of faba bean necrotic yellows virus
T5 sequence (Rep 1-98, printed without the tag): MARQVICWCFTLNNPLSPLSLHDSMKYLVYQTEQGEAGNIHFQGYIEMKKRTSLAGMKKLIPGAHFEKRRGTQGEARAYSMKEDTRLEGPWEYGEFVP
Procedure: as §1

[6] = test system: T6, Rep nickase domain of maize striate mosaic virus
T6 sequence (Rep 1-117, printed without the tag): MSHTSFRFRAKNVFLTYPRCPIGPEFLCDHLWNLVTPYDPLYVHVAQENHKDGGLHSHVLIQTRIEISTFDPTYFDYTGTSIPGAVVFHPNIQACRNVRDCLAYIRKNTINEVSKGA
Procedure: as §1

[7] = test system: T7, Rep nickase domain of porcine circovirus 2
T7 sequence (Rep 2-116, printed without the tag): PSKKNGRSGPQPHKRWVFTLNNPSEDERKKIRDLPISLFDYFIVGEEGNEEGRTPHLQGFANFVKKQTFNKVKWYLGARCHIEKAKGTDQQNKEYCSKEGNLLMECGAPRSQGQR
Procedure: as §1

[8] = test system: T8, Rep nickase domain of tomato golden mosaic virus
T8 sequence (Rep 1-124, printed without the tag): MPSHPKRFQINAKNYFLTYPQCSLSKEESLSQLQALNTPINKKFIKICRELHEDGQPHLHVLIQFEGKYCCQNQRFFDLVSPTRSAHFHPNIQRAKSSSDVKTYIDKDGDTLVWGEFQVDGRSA
Procedure: as §1

[9] = test system: T9, Rep nickase domain of tomato yellow leaf curl virus
T9 sequence (Rep 1-136, printed without the tag): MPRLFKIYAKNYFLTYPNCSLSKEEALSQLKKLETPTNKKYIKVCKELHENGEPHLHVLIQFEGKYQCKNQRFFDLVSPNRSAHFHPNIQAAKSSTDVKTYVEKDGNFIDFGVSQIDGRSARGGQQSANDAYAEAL
Procedure: as §1

[10] = test system: T10, Rep nickase domain of wheat dwarf virus
T10 sequence (Rep 1-137, printed without the tag): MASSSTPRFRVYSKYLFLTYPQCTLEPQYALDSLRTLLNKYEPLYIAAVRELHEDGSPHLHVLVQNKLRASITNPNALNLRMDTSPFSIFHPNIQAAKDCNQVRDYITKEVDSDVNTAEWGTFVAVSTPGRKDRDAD
Procedure: as §1

Sequence | uncleaved DNA left (log2) [1] | uncleaved DNA left (log2) [2] | uncleaved DNA left (log2) [3] | uncleaved DNA left (log2) [4] | uncleaved DNA left (log2) [5] | uncleaved DNA left (log2) [6] | uncleaved DNA left (log2) [7] | uncleaved DNA left (log2) [8] | uncleaved DNA left (log2) [9] | uncleaved DNA left (log2) [10]
TGATGGG | 0.0632 | -0.0276 | -0.457 | -0.591 | 0.0693 | -0.831 | 0.155 | 0.0516 | 0.0602 | -0.114
GCAGGTT | 0.0394 | 0.0161 | 0.325 | 0.542 | -0.00904 | 1.27 | 0.0919 | 0.121 | 0.00389 | -0.0448
CACTTGA | -0.0868 | -0.0392 | -0.37 | -0.934 | -0.0602 | -1.04 | -0.539 | -0.00315 | -0.0825 | -0.0313
TTTCCGA | 0.1 | 0.0837 | 0.26 | 0.163 | 0.0813 | -0.122 | 0.0889 | -0.0481 | 0.108 | 0.0557
GAGGTCG | 0.132 | -0.0452 | -0.421 | -0.292 | 0.0956 | -0.515 | 0.174 | 0.0849 | 0.172 | -0.0452
GGAAGAC | 0.0497 | 0.129 | 0.854 | 2.07 | 0.0751 | 2.2 | 0.251 | 0.0886 | 0.0825 | 0.243
GACGGCA | -0.0932 | -0.0354 | 0.273 | 0.443 | 0.0194 | 0.349 | -0.256 | 0.0408 | -0.0467 | -0.0647
ACTACCC | -0.0464 | -0.159 | -0.0592 | -0.312 | -0.0678 | -0.274 | -0.598 | -0.0866 | -0.0802 | -0.0203
AATAATG | 0.141 | 0.00154 | -0.347 | -0.432 | 0.1 | -0.931 | 0.192 | 0.0965 | -0.024 | -0.011
GACACTT | -0.113 | -0.265 | 0.447 | -1.47 | 0.0288 | 1.58 | -0.895 | -0.156 | 0.0165 | 0.0587
GCCAAGA | 0.0151 | -0.024 | 0.191 | 0.637 | 0.0543 | -0.33 | 0.156 | 0.0885 | -0.0256 | -0.0215
CTCCTGG | -0.188 | -0.0716 | -0.0746 | 0.0533 | -0.193 | -0.359 | -0.0491 | -0.125 | -0.148 | 0.0208
CGTACTC | -0.0255 | -0.0673 | -0.00365 | 0.0176 | -0.0725 | 0.382 | -0.0627 | -0.265 | -0.0524 | 0.0844
GACTATA | -0.082 | -0.0305 | 0.162 | -1.54 | -0.0665 | 0.758 | -2.26 | -0.123 | -0.131 | -0.0639
CTTAGAA | 0.209 | 0.243 | 0.175 | 0.116 | 0.191 | -0.614 | 0.0751 | 0.138 | 0.14 | 0.211
